# Experimental data reported in article PMC12820563.
# The list shows a part of the results. The list includes weakly bound sequences.
# Target: T1, MBP-FoxP3dN (UniProt Q99JB6)
# T1 sequence: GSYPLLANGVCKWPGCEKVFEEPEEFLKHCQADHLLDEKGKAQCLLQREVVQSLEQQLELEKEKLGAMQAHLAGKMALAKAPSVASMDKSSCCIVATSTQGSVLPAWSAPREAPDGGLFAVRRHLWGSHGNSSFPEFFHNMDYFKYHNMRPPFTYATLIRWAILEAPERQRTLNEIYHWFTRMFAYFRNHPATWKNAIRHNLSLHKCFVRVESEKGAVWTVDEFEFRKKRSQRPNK
# Assay: PD-seq (MBP pull-down with sequencing)
# Settings: 20 mM Tris-HCl pH 7.5, 100 mM NaCl, 1.5 mM MgCl2, 0.4 uM protein, 0.1 uM dsDNA library, 30 min, room temperature, amylose pull-down; high values mean tight binding; double strand, one strand shown
row,Sequence,binding signal (RPM ratio (pull-down/input))
1,GATGATTGTTCTCCCAGCTGATGAATTTAACTTGTCGAGTAAACAAATTTTCCTAATCTTTCTGTTCAAGCGCCATCTAC,0.475
2,GATGATTGTTCTCCCAGCTGATGAATTTCCTATTTCGAGTAAACAAATTTTCCTAATCTTTCTGTTCAAGCGCCATCTAC,0.293
3,GATGATTGTTCTCCCAGCTGATGAATTCGATTGATCGAGTAAACAAATTTTCCTAATCTTTCTGTTCAAGCGCCATCTAC,1.17
4,GATGATTGTTCTCCCAGCTGATGAATTGAAGAGTTCGAGTAAACAAATTTTCCTAATCTTTCTGTTCAAGCGCCATCTAC,0.363
5,GATGATTGTTCTCCCAGCTGATGAATTACGCCGCTCGAGTAAACAAATTTTCCTAATCTTTCTGTTCAAGCGCCATCTAC,1.9
6,GATGATTGTTCTCCCAGCTGATGAATTCCAAATGTCGAGTAAACAAATTTTCCTAATCTTTCTGTTCAAGCGCCATCTAC,0.315
7,GATGATTGTTCTCCCAGCTGATGAATTATTTATTTCGAGTAAACAAATTTTCCTAATCTTTCTGTTCAAGCGCCATCTAC,2.74
8,GATGATTGTTCTCCCAGCTGATGAATTACTCCCCTCGAGTAAACAAATTTTCCTAATCTTTCTGTTCAAGCGCCATCTAC,0.281
9,GATGATTGTTCTCCCAGCTGATGAATTGCCGAAGTCGAGTAAACAAATTTTCCTAATCTTTCTGTTCAAGCGCCATCTAC,0.358
10,GATGATTGTTCTCCCAGCTGATGAATTCAATATCTCGAGTAAACAAATTTTCCTAATCTTTCTGTTCAAGCGCCATCTAC,0.952
11,GATGATTGTTCTCCCAGCTGATGAATTACAGCCATCGAGTAAACAAATTTTCCTAATCTTTCTGTTCAAGCGCCATCTAC,1.14
12,GATGATTGTTCTCCCAGCTGATGAATTCTAATTTTCGAGTAAACAAATTTTCCTAATCTTTCTGTTCAAGCGCCATCTAC,0.566
13,GATGATTGTTCTCCCAGCTGATGAATTCTGAATTTCGAGTAAACAAATTTTCCTAATCTTTCTGTTCAAGCGCCATCTAC,1.22
14,GATGATTGTTCTCCCAGCTGATGAATTGCGATCTTCGAGTAAACAAATTTTCCTAATCTTTCTGTTCAAGCGCCATCTAC,0.844
15,GATGATTGTTCTCCCAGCTGATGAATTCGCCTCCTCGAGTAAACAAATTTTCCTAATCTTTCTGTTCAAGCGCCATCTAC,2.15
16,GATGATTGTTCTCCCAGCTGATGAATTAAAACATTCGAGTAAACAAATTTTCCTAATCTTTCTGTTCAAGCGCCATCTAC,0.944
17,GATGATTGTTCTCCCAGCTGATGAATTAGACCCTTCGAGTAAACAAATTTTCCTAATCTTTCTGTTCAAGCGCCATCTAC,0.334
18,GATGATTGTTCTCCCAGCTGATGAATTGCGTGGCTCGAGTAAACAAATTTTCCTAATCTTTCTGTTCAAGCGCCATCTAC,1.35
19,GATGATTGTTCTCCCAGCTGATGAATTAGGGCAGTCGAGTAAACAAATTTTCCTAATCTTTCTGTTCAAGCGCCATCTAC,0.376
20,GATGATTGTTCTCCCAGCTGATGAATTGGGCTTGTCGAGTAAACAAATTTTCCTAATCTTTCTGTTCAAGCGCCATCTAC,2.4
21,GATGATTGTTCTCCCAGCTGATGAATTCAGCGTCTCGAGTAAACAAATTTTCCTAATCTTTCTGTTCAAGCGCCATCTAC,3.42

row,Sequence,binding signal (RPM ratio (pull-down/input))
1,GATGATTGTTCTCCCAGCTGATGAATTGTTCACGTCGAGTAAACAAATTTTCCTAATCTTTCTGTTCAAGCGCCATCTAC,0.396
2,GATGATTGTTCTCCCAGCTGATGAATTTGTAAGGTCGAGTAAACAAATTTTCCTAATCTTTCTGTTCAAGCGCCATCTAC,1.8
3,GATGATTGTTCTCCCAGCTGATGAATTGATCGATTCGAGTAAACAAATTTTCCTAATCTTTCTGTTCAAGCGCCATCTAC,0.337
4,GATGATTGTTCTCCCAGCTGATGAATTGTTATGTTCGAGTAAACAAATTTTCCTAATCTTTCTGTTCAAGCGCCATCTAC,3.51
5,GATGATTGTTCTCCCAGCTGATGAATTGACGCACTCGAGTAAACAAATTTTCCTAATCTTTCTGTTCAAGCGCCATCTAC,1.04
6,GATGATTGTTCTCCCAGCTGATGAATTGCGAATGTCGAGTAAACAAATTTTCCTAATCTTTCTGTTCAAGCGCCATCTAC,1.16
7,GATGATTGTTCTCCCAGCTGATGAATTCTGACAATCGAGTAAACAAATTTTCCTAATCTTTCTGTTCAAGCGCCATCTAC,0.395
8,GATGATTGTTCTCCCAGCTGATGAATTAATGATTTCGAGTAAACAAATTTTCCTAATCTTTCTGTTCAAGCGCCATCTAC,1.13
9,GATGATTGTTCTCCCAGCTGATGAATTGTCTTGTTCGAGTAAACAAATTTTCCTAATCTTTCTGTTCAAGCGCCATCTAC,0.854
10,GATGATTGTTCTCCCAGCTGATGAATTATTCCTCTCGAGTAAACAAATTTTCCTAATCTTTCTGTTCAAGCGCCATCTAC,0.338
11,GATGATTGTTCTCCCAGCTGATGAATTACAACTTTCGAGTAAACAAATTTTCCTAATCTTTCTGTTCAAGCGCCATCTAC,0.849
12,GATGATTGTTCTCCCAGCTGATGAATTCCTGGAGTCGAGTAAACAAATTTTCCTAATCTTTCTGTTCAAGCGCCATCTAC,0.177
13,GATGATTGTTCTCCCAGCTGATGAATTATTATAATCGAGTAAACAAATTTTCCTAATCTTTCTGTTCAAGCGCCATCTAC,0.552
14,GATGATTGTTCTCCCAGCTGATGAATTGAAACGATCGAGTAAACAAATTTTCCTAATCTTTCTGTTCAAGCGCCATCTAC,0.283
15,GATGATTGTTCTCCCAGCTGATGAATTGTCGTAATCGAGTAAACAAATTTTCCTAATCTTTCTGTTCAAGCGCCATCTAC,1.03
16,GATGATTGTTCTCCCAGCTGATGAATTTGAAGATTCGAGTAAACAAATTTTCCTAATCTTTCTGTTCAAGCGCCATCTAC,0.277
17,GATGATTGTTCTCCCAGCTGATGAATTTGAGGGGTCGAGTAAACAAATTTTCCTAATCTTTCTGTTCAAGCGCCATCTAC,0.728
18,GATGATTGTTCTCCCAGCTGATGAATTATGGATCTCGAGTAAACAAATTTTCCTAATCTTTCTGTTCAAGCGCCATCTAC,0.445
19,GATGATTGTTCTCCCAGCTGATGAATTCTGAGTATCGAGTAAACAAATTTTCCTAATCTTTCTGTTCAAGCGCCATCTAC,0.691
20,GATGATTGTTCTCCCAGCTGATGAATTAACTAGGTCGAGTAAACAAATTTTCCTAATCTTTCTGTTCAAGCGCCATCTAC,0.214
21,GATGATTGTTCTCCCAGCTGATGAATTACCAGTGTCGAGTAAACAAATTTTCCTAATCTTTCTGTTCAAGCGCCATCTAC,0.421

row,Sequence,binding signal (RPM ratio (pull-down/input))
1,GATGATTGTTCTCCCAGCTGATGAATTTTGCCAGTCGAGTAAACAAATTTTCCTAATCTTTCTGTTCAAGCGCCATCTAC,2.91
2,GATGATTGTTCTCCCAGCTGATGAATTATACTTGTCGAGTAAACAAATTTTCCTAATCTTTCTGTTCAAGCGCCATCTAC,1.05
3,GATGATTGTTCTCCCAGCTGATGAATTCGAACTTTCGAGTAAACAAATTTTCCTAATCTTTCTGTTCAAGCGCCATCTAC,0.271
4,GATGATTGTTCTCCCAGCTGATGAATTCTCTCGCTCGAGTAAACAAATTTTCCTAATCTTTCTGTTCAAGCGCCATCTAC,0.226
5,GATGATTGTTCTCCCAGCTGATGAATTCCGGCAGTCGAGTAAACAAATTTTCCTAATCTTTCTGTTCAAGCGCCATCTAC,0.341
6,GATGATTGTTCTCCCAGCTGATGAATTTTGCGAATCGAGTAAACAAATTTTCCTAATCTTTCTGTTCAAGCGCCATCTAC,0.413
7,GATGATTGTTCTCCCAGCTGATGAATTGCGTCAATCGAGTAAACAAATTTTCCTAATCTTTCTGTTCAAGCGCCATCTAC,0.903
8,GATGATTGTTCTCCCAGCTGATGAATTCCGTGCATCGAGTAAACAAATTTTCCTAATCTTTCTGTTCAAGCGCCATCTAC,1.16
9,GATGATTGTTCTCCCAGCTGATGAATTATCGGGGTCGAGTAAACAAATTTTCCTAATCTTTCTGTTCAAGCGCCATCTAC,0.238
10,GATGATTGTTCTCCCAGCTGATGAATTACAGGGCTCGAGTAAACAAATTTTCCTAATCTTTCTGTTCAAGCGCCATCTAC,0.293
11,GATGATTGTTCTCCCAGCTGATGAATTTCATATGTCGAGTAAACAAATTTTCCTAATCTTTCTGTTCAAGCGCCATCTAC,0.754
12,GATGATTGTTCTCCCAGCTGATGAATTTTCGAGATCGAGTAAACAAATTTTCCTAATCTTTCTGTTCAAGCGCCATCTAC,0.235
13,GATGATTGTTCTCCCAGCTGATGAATTTAACAGCTCGAGTAAACAAATTTTCCTAATCTTTCTGTTCAAGCGCCATCTAC,0.369
14,GATGATTGTTCTCCCAGCTGATGAATTGCCGGCTTCGAGTAAACAAATTTTCCTAATCTTTCTGTTCAAGCGCCATCTAC,0.496
15,GATGATTGTTCTCCCAGCTGATGAATTTGCTACGTCGAGTAAACAAATTTTCCTAATCTTTCTGTTCAAGCGCCATCTAC,0.807
16,GATGATTGTTCTCCCAGCTGATGAATTGCATTCGTCGAGTAAACAAATTTTCCTAATCTTTCTGTTCAAGCGCCATCTAC,3.88
17,GATGATTGTTCTCCCAGCTGATGAATTGCACAGGTCGAGTAAACAAATTTTCCTAATCTTTCTGTTCAAGCGCCATCTAC,0.57
18,GATGATTGTTCTCCCAGCTGATGAATTTTTTTAATCGAGTAAACAAATTTTCCTAATCTTTCTGTTCAAGCGCCATCTAC,0.188
19,GATGATTGTTCTCCCAGCTGATGAATTGTGAAGCTCGAGTAAACAAATTTTCCTAATCTTTCTGTTCAAGCGCCATCTAC,0.447
20,GATGATTGTTCTCCCAGCTGATGAATTGCGAGCCTCGAGTAAACAAATTTTCCTAATCTTTCTGTTCAAGCGCCATCTAC,0.895
21,GATGATTGTTCTCCCAGCTGATGAATTGCGACCATCGAGTAAACAAATTTTCCTAATCTTTCTGTTCAAGCGCCATCTAC,1.11
